# The supplement of paper PMC11417369
# ± gives the standard deviation of the averaged measurements. This is one part of the list.
# System: PfAP2-LT AP2 domain (GST-tagged)
# Assay: gcPBM binding intensity (ln(normalized median fluorescence intensity)); higher = stronger DNA binding
# Outline: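 For binding intensity, the highest Masliner-normalised natural-log median intensity across replicate spots of either probe orientation was taken. Protein bound to the array was stained with Alexa488 anti-GST antibody and scanned at 488 nm. The protein, GST-tagged P. falciparum DNA-binding domains from E. coli at about 25 μg on average, had been applied for 1 h to an Agilent 4 × 180k array of primer-extended double-stranded 36-bp intergenic genomic probes and negative controls.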
row,Sequence,gcPBM binding intensity (ln)
1,AATTATGCACAAATCACACATATAAAATAAAAAGTG [CACACA_site4474],9.06 ± 0.37
2,AAATATTTATATGTTACACACTGTTTATAATTTTCT [CACACA_site4868],8.86 ± 0.39
3,ACAAAAATGAGATGGTGTACGCACAAATAAATAATA [XGTACX_site5221],9.31 ± 0.53
4,ATATAGTTTCACATGTGTACATAAAAATACACTTGT [XGTACX_site3339],8.85 ± 0.4
5,TTTAATTTATATAATGATATTAAGTTGGTTATTAGG [CACACA_negctrl_site329],8.45 ± 0.48
6,CAAAATGTTAAAGATACACACCTAACAAACACAAAA [CACACA_site4685],9.19 ± 0.5
7,AATTCTTTACTATTCACACATATAAATATTCACTTT [CACACA_site4886],8.85 ± 0.42
8,AAATCCATATAGGATTGTACATATATTATATATATA [XGTACX_site8818],8.79 ± 0.39
9,AAAAATATTTAAAATACACACATATCTATAATATAT [CACACA_site7032],8.8 ± 0.33
10,GTGGTATAAATTTTATGTACTTAATAACTCATTAAT [XGTACX_site5555],8.73 ± 0.43
11,ACATATATATTTATATGTACATATATTTATATATAT [XGTACX_site7469],8.93 ± 0.46
12,TACTTACCTATAATAACACACAAGAAAAAAATAAAA [CACACA_site6616],8.82 ± 0.49
13,AAATAATATCATAAATGTACATATATCATATTATTA [XGTACX_site5372],8.62 ± 0.36
14,CATCCAAAAATATTATGTACTAAATTTGGATGTATT [XGTACX_site3954],8.7 ± 0.4
15,TATAAAATTATGTGTACACAAATATAACTTTTCTTT [CACACA_site5554],8.71 ± 0.51
16,AAAATATTTCTTCTTTGTACTTATATATATTTAATT [XGTACX_site5446],8.71 ± 0.38
17,TATTCATATTCCAAGTGTACACATAAATCCCTAATA [XGTACX_site4131],8.63 ± 0.39
18,TTAATAATTATAACATGTACATACACTAAATTTTTT [XGTACX_site8953],8.65 ± 0.51
19,CAAATATATATTTATTGTACATATTGTTTATATGGT [XGTACX_site5246],8.87 ± 0.47
20,AGAAATAATATTATTCAAGTATTTATTTAATTTTCA [GTGCAC_negctrl_site475],8.29 ± 0.46
21,ATAATAACTTGTAAGGTGCATTTTATGTTTTCTTAA,8.67 ± 0.45
22,CTCATCCTTACATACACACACATATATTTATTTATA [CACACA_site6202],9.31 ± 0.35
23,AAATTATAGAATCATTGTACTTTTTTTTTTTTTTTT [XGTACX_site1280],8.49 ± 0.52

row,Sequence,gcPBM binding intensity (ln)
1,TATGCTTCAAAATTGTGTACATATATAATATATTAT [XGTACX_site6760],8.84 ± 0.4
2,TTTTAAAACTACATTGGTACACAATAAAAAAAAAAA [XGTACX_site2793],8.47 ± 0.45
3,TCATATATATTATACACACACATATATAAATATATA [CACACA_site967],9.18 ± 0.3
4,AAAAAAAAAAAAAAAGCACACATATAAATATGAATA [CACACA_site8391],8.81 ± 0.53
5,CCATGTCAAACATTTGCACACAAAAAAATAAAAATT [CACACA_site4546],9.12 ± 0.52
6,TATATATATATATAATGTACAAACTCCTTTATATAT [XGTACX_site4545],9.05 ± 0.2
7,AGGTTGAATATATATTTGTGATTATATTATTTTATT [CACACA_negctrl_site778],8.77 ± 0.34
8,TCATTCAAAAAAAATCAACACACAGTTACATAGCTC [CACACA_site8700],8.93 ± 0.3
9,GTTTTTTTTATATATTGTACAAATAATATATTATAT [XGTACX_site29],8.89 ± 0.4
10,TTATTTAAACAAATCACACACAAATATAAATACATA [CACACA_site5158],9.11 ± 0.39
11,AACACCAAACTAAATGTACACACATACATAAATATA [CACACA_site8298],9.34 ± 0.46
12,AATATAAACACAAACACACACATATATATATATATA [CACACA_site4307],10 ± 0.28
13,TAAAATTATGTAATAACACACATATACAATACATAT [CACACA_site1236],9 ± 0.38
14,GAAAATTCATAAAAATGTACTTATTATATTATTTAT [XGTACX_site2169],8.38 ± 0.47
15,GATATATAACTTTTAACACACAAAAAAAAAAAAAAT [CACACA_site7653],8.94 ± 0.57
16,TTATGAATATTGATGTATAAAAAAATATATATGTTA [XGTACX_negctrl_site390],8.35 ± 0.51
17,AAAGGTTTGCGTTGTGTGCACAAAATAAATATATAA,9.29 ± 0.38
18,AAAAAAATTTTAAAATGTACAAATTTTAATATATAT [XGTACX_site7628],8.47 ± 0.45
19,TTTTCAAAAATATACACACACATAAATATATGTATA [CACACA_site777],9.15 ± 0.23
20,TTTTTTATTTAAAGTAGTACTTTTTAGAAAACAAAA [XGTACX_site6759],7.9 ± 0.48
21,ATTCTAAATATGTATATACACACTTTTAATATTCAT [CACACA_site4118],9.04 ± 0.4
22,TTTATGAAACAGTGCACACATAAAAATAAATACATA [CACACA_site5631],9.12 ± 0.42
23,TTATTTTAAATTAACACATGCATAATATATGTATAT [TGCATGCA_site597],8.54 ± 0.35

row,Sequence,gcPBM binding intensity (ln)
1,ATATATACCTATAACACACACATATTTATATTTATA [CACACA_site7257],9.24 ± 0.24
2,TATAAATCAATATGTACACACATATACATGTTGAAT [CACACA_site7460],9.04 ± 0.41
3,TAATAAAAAAAGTGCACACACATAATATATATATAT [CACACA_site3340],9.47 ± 0.3
4,TTAGCAACTATTACTACACACATTTTTATATAATTT [CACACA_site1372],8.93 ± 0.45
5,CATATAATATATCAATGTACATATATATTTTATAAA [XGTACX_site5901],8.6 ± 0.37
6,ATTGTCAAAACACGCACACACATATACATAATAACA [CACACA_site1742],9.65 ± 0.37
7,ATTATATACATATATATTGTATATACTATACATATG [XGTACX_negctrl_site545],8.84 ± 0.49
8,TCCTTGTTTGGTTTTTTTTTTTCTTCTTTTTTTTTT [CACACA_negctrl_site1355],8.77 ± 0.6
9,ACACATACACATTAGGTGCACATAATTCAATATTAC [GTGCAC_site9862],9.26 ± 0.51
10,TTAAATGTTATATATTGTACATATAATATATGTATT [XGTACX_site1492],8.73 ± 0.46
11,TATGAAACGATATATGTGCACATGAGGGAATATAGA [GTGCAC_site9611],9.22 ± 0.42
12,AAAAAACATACATACACACACATAAATATATATATT [CACACA_site2699],9.59 ± 0.18
13,ATATATATATAAAGGAGTACATACATTAAAAAAAAA [XGTACX_site1095],8.86 ± 0.54
14,TCTTATTTAAAAATAGCACACATTATATATATATAT [CACACA_site8916],8.91 ± 0.53
15,TTTTGAGAATATATGGGTACAAATAAATAAAAATAT [XGTACX_site1933],8.59 ± 0.54
16,TTTTCTATTTAATTGGTGCACTGATATATACACATA [GTGCAC_site9533],8.88 ± 0.43
17,AGGTTAAAAATAAATACACACATTTGATGTCTGTAT [CACACA_site6596],9.07 ± 0.26
18,TTATGTTATATATACACACACAAAAGAAAAAAAAAA [CACACA_site2987],9.16 ± 0.38
19,ATATAACATATTAATAATATATTTATAATATGTTTA [GTGCAC_negctrl_site168],8.33 ± 0.41
20,TCTTATAACAAAAAAAAATAAAAAATAAAACTATAT [GTGCAC_negctrl_site11],8.46 ± 0.44
21,CATATAAATAGACACACACACACATATAAATAAATA [CACACA_site7156],10.1 ± 0.4
22,AAATTTAAATAATGTGCGCATCTTAATATATATAAG [GTGCAC_site9890],8.8 ± 0.44
23,AAATAATATTGAAAAGTGCATATTTTTGTTGATATA,8.59 ± 0.44

row,Sequence,gcPBM binding intensity (ln)
1,AAAAGGTGGAAAAATGCATGCAGGCTATTCTATATA [TGCATGCA_site1034],9.1 ± 0.38
2,AATTACATATAATACTGTACGCTAATAAGAAAAAAA [XGTACX_site7413],8.76 ± 0.47
3,TTCCACCAATATATATGTACTTATAATATATATATA [XGTACX_site8700],8.64 ± 0.42
4,AAAAAACACGGACACACACACATATACATACATACA [CACACA_site5470],9.98 ± 0.41
5,AATATAAATAATGTTAAACACACATACCGATATATA [CACACA_site8869],9.02 ± 0.45
6,ATTTATAGAGCTATATGTACATATATATATATTATT [XGTACX_site3704],9.02 ± 0.42
7,AACGCTTATTAGTTGTTGTATATGTGTTCACATATT [CACACA_negctrl_site379],8.96 ± 0.4
8,ATATAAATAAAGAAATATATATATATATATATATAT [GTGCAC_negctrl_site668],9.6 ± 0.099
9,ATATATATGTATATAACATGCAACATTTAATAATAA [TGCATGCA_site1018],8.95 ± 0.41
10,ATAAAAGATTTATACATACACACATATTATATTCAC [CACACA_site3714],9.02 ± 0.42
11,TTTTTTTTTTTTTTTTAACACACATATATATATTTT [CACACA_site8585],8.7 ± 0.47
12,GATCTATTGAGTGATACATGCAGGAAAATTAAAAAC [TGCATGCA_site729],8.8 ± 0.48
13,TATGTATGTATGTATGTATGCATGTCTAACACCTAA [TGCATGCA_site360],9.04 ± 0.26
14,TTTTTTTTTTTATGCTCACACATTAATTTTTATACA [CACACA_site4527],8.71 ± 0.49
15,TTTTTATTATAAGGTCGTACAATTGTAATTATTGTA [XGTACX_site1413],8.61 ± 0.42
16,AAAAAGAAAAAAGAAAGTACAAATATACACATTTTT [XGTACX_site3343],8.73 ± 0.46
17,TCATAGCTAGGATAACGTACAGAAAAGTGAAAAATT [XGTACX_site3322],8.99 ± 0.47
18,ACACATGTATTTGGTGCATGTTGTTAAAAAAATATT [TGCATGCA_site795],8.89 ± 0.3
19,TTTTTTTTTTGTTGTTGTACTCTTATATTTTTATAT [XGTACX_site6178],9.01 ± 0.52
20,ATTCTAGTAATATATGTATATTTATATATGTATGTG [XGTACX_negctrl_site419],8.86 ± 0.38
